This is one part of the list. Antibody binding of pooled human sera (four to six donors per pool; dilution not stated) to peptides of the Trypanosoma cruzi antigen TSSA on microarrays. Quantile-normalised fluorescence in arbitrary units, mean of duplicate arrays; higher = more binding. No active / inactive call. The uninfected pools are read here as the healthy donors of the same country. The strongest signals lie near the top of the scale (about 60,000).
Assays:
Test in all cases: antibody binding signal (normalised fluorescence) (arbitrary fluorescence units); higher = stronger serum antibody binding to peptide
[1] = system: pooled sera of chronic Chagas disease patients, Argentina
Experimental: (§1)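 Microarray of 15-residue peptides over residues 30-55 of Trypanosoma cruzi TSSAII, each with 1 to 10 substitutions at naturally variable positions, probed with one serum pool per country.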

[2] = system: pooled sera of chronic Chagas disease patients, Bolivia
Experimental: as §1

[3] = system: pooled sera of chronic Chagas disease patients, Brazil
Experimental: as §1

[4] = system: pooled sera of chronic Chagas disease patients, Colombia
Experimental: as §1

[5] = system: pooled sera of chronic Chagas disease patients, Mexico
Experimental: as §1

[6] = system: pooled sera of chronic Chagas disease patients, USA
Experimental: as §1

[7] = system: pooled sera of uninfected people, Argentina
Experimental: as §1

[8] = system: pooled sera of uninfected people, Bolivia
Experimental: as §1

[9] = system: pooled sera of uninfected people, Brazil
Experimental: as §1

[10] = system: pooled sera of uninfected people, Mexico
Experimental: as §1

[11] = system: pooled sera of uninfected people, USA
Experimental: as §1

Sequence | antibody binding signal [1] | antibody binding signal [2] | antibody binding signal [3] | antibody binding signal [4] | antibody binding signal [5] | antibody binding signal [6] | antibody binding signal [7] | antibody binding signal [8] | antibody binding signal [9] | antibody binding signal [10] | antibody binding signal [11]
GKDKKAATGGTPSPP | 388 | 421 | 184 | 678 | 693 | 663 | 161 | 71.2 | 148 | 89 | 112
TEKKAATGGAPSPPG | 1990 | 390 | 1760 | 3110 | 2840 | 3430 | 553 | 1600 | 186 | 299 | 260
SGKEKKAATGETPSQ | 4080 | 686 | 9450 | 1470 | 3800 | 10400 | 412 | 242 | 95.1 | 82.8 | 166
STPPSGTDNKTATGE | 29200 | 38200 | 44500 | 811 | 9880 | 26700 | 888 | 489 | 888 | 155 | 136
TPPSGKDKKPAAGGT | 6060 | 727 | 2260 | 655 | 44200 | 595 | 186 | 369 | 632 | 99.9 | 140
TPPSGKDKKPATGEA | 31400 | 4260 | 16600 | 241 | 53000 | 11500 | 582 | 671 | 142 | 165 | 231
TENKPAAGGTPSQPG | 43800 | 1080 | 9240 | 1510 | 763 | 1890 | 293 | 573 | 804 | 542 | 212
PPSGKENKPAAGGAP | 19000 | 6380 | 6270 | 2290 | 4480 | 10700 | 5300 | 2580 | 164 | 218 | 682
ENKPATGETPSPSGA | 36600 | 34100 | 35400 | 260 | 448 | 27700 | 316 | 427 | 265 | 1640 | 589
PPSGTDNKPAAGGAP | 43800 | 39800 | 47200 | 7040 | 4870 | 14500 | 1220 | 1260 | 1350 | 854 | 826
DNKAATGEAPSQSGA | 26400 | 44800 | 38600 | 89.8 | 197 | 27500 | 234 | 133 | 158 | 98.3 | 164
GTEKKPATGGAPSQP | 2890 | 717 | 12100 | 1490 | 2170 | 2370 | 324 | 1710 | 683 | 232 | 1270
SGKEKKTATGGTPSP | 2250 | 413 | 1830 | 2920 | 2890 | 4490 | 218 | 83.6 | 125 | 114 | 127
KKAAAGETPSQSGAS | 212 | 749 | 2600 | 194 | 120 | 563 | 228 | 299 | 78.4 | 122 | 255
PSGTENKPAAGETPS | 46900 | 34700 | 43200 | 1560 | 4180 | 14000 | 1610 | 1670 | 468 | 460 | 519
NKAAAGGTPSPSGAS | 396 | 315 | 5960 | 4490 | 595 | 1500 | 572 | 811 | 1700 | 290 | 1230
TSSTPPSGKDKKTAT | 21500 | 653 | 1440 | 210 | 41100 | 770 | 152 | 255 | 117 | 92.7 | 93.4
GKENKPAAGGTPSPS | 1610 | 512 | 2880 | 3740 | 2980 | 6450 | 783 | 222 | 447 | 183 | 118
PSGTDKKPATGEAPS | 43200 | 42500 | 49000 | 5030 | 1760 | 38500 | 860 | 1320 | 515 | 3790 | 276
GTDNKAAAGGTPSPS | 318 | 152 | 28300 | 3130 | 308 | 1130 | 109 | 718 | 2960 | 213 | 94.4

Reference: the supplement of paper PMC10441789
